According to PubChem BioAssay AID686970 (National Center for Advancing Translational Sciences (NCATS), 2013):
The whole screen tested about 360,000 compounds, of which about 6,000 (1.7%) were called active. Inconclusive means that the source gave no clear call. Such entries were picked first, then a sample of the others. Calls come from the whole dose curve; as a rule, active = well fitted cell-killing curve with a large enough effect; inconclusive = small, poorly fitted or top-dose-only effect, or effect the other way; inactive = flat fitted curve, though single readings scatter. No potency is given beside an inconclusive call; the fits are too rough.

Experiment: qHTS for induction of synthetic lethality in tumor cells producing 2HG: qHTS for the HT-1080-NT fibrosarcoma cell line;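 note: NT is the 2HG producing partner of a matched IDH1 knockdown line; nearly all actives have a fitted effect of over 55% in size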;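 for activity, negative = less viability: 0% = DMSO-treated cells and -100% = media-only wells without cells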
Conditions: HT-1080-NT fibrosarcoma viability, CellTiter-Glo ATP luminescence, 48 h; activity, negative = less viability: at 46.1 µM (top of the series) unless noted
Procedure, shortened: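 750 cells/well, RPMI + 5% FBS; 2 h settle, compound pin-transfer, 48 h at 37 degrees C. CellTiter-Glo 10 min RT, luminescence. Normalized to DMSO and media-only wells.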
Potency is the fitted concentration of half-maximal effect; tags give direction and shape of the fitted curve.

| SMILES | activity, negative = less viability | Potency |
| --- | --- | --- |
| CC(C)(C)OC(=O)NCCCCCc1cn(CC(=O)NCCCCCCCCCCC(=O)N2CCN(C(=O)OC(C)(C)C)CC2)nn1 | inactive: 20.2% |  |
| CC(C)(C)c1ccc(SC2=C[C@@]3(O)CC[C@@H](O)[C@@](Sc4ccc(C(C)(C)C)cc4)(C2=O)[C@H]3O)cc1 |  | active: 16.4 µM |
| CN(C)Cc1ncccc1Oc1nc2cc(-c3cccc(Cl)c3)sc2c(=O)n1C |  | inconclusive [cytotoxic, single point] |
| C=CCn1c(-c2cccc(Cl)c2)n[nH]c1=S | inactive: 16.1% |  |
| COc1cccc(C(=O)Nc2ccc(N3CCCC3)cc2)c1 |  | active: 20.6 µM |
| Cc1ccsc1C(=O)C1CCCN(Cc2cccn2-c2ccc(Cl)cn2)C1 (stereo not drawn) |  | inconclusive [cytotoxic, single point] |
| Cc1cccc2cc(C#N)c(SCC(=O)N3CC(=O)Nc4ccccc43)nc12 |  | inconclusive [cytotoxic, full curve] |
| COc1cc(OC)cc(C(=O)N2CCCC(c3nc(-c4ccc(C)o4)no3)C2)c1 (stereo not drawn) | inactive: -6.06% |  |
| O=C(NNC(=O)C1CC1)c1cc(Br)c(Br)s1 | inactive: 14.3% |  |
| Cc1ccc(NS(=O)(=O)c2cc(C(=O)N3CCc4ccccc4C3)ccc2Cl)cc1 |  | inconclusive [cytotoxic, single point] |
| COCCNc1nc(Nc2ccc(C)cc2C)c2sccc2n1 |  | inconclusive [cytotoxic, full curve] |
| COc1ccc(Nc2c(CCc3ccccc3)nc3nc(C)cc(C)n23)cc1 |  | inconclusive [cytotoxic, single point] |
| Cc1nc(N)nc(N)c1CCCc1ccc(Cl)c(Cl)c1 |  | active: 8.2 µM |
| CCCC(=O)N1CCC1(C)C(=O)Nc1cc(OC)ccc1OC (stereo not drawn) |  | inconclusive [rising, single point] |
| CCCCc1nc(N2CCOCC2)c(C#N)c2c1CCCC2 |  | inconclusive [cytotoxic, single point] |
| Cc1[nH]c2c(Cl)cccc2c1CCNC(=O)C1CCCCC1C(=O)OCC(F)(F)F (stereo not drawn) | inactive: -19.6% |  |
| Cc1cc(C(=O)NNc2ccccc2F)no1 |  | active: 5.17 µM |
| COc1cc(CN2CCN(c3cccc(C)c3C)CC2)cc(Br)c1O |  | inconclusive [cytotoxic, single point] |
| CC1(C(=O)NCCC(F)(F)F)Cc2c(-c3cccc(C(F)(F)F)c3)ccnc2O1 (stereo not drawn) |  | active: 20.6 µM |
| COC(=O)[C@@]12C[C@@H](CC(=O)NCc3ccc(OC)c(OC)c3)C(=O)N(Cc3cccc4ccccc34)C1=CCC(C)(C)C2 |  | inconclusive [cytotoxic, single point] |
| O=c1[nH]c(C2CCCN(S(=O)(=O)c3ccccc3)C2)nc2c1nnn2Cc1cccc(Cl)c1 (stereo not drawn) |  | inconclusive [cytotoxic, single point] |
| C[C@H]1O[C@H]1P(=O)(O)O | inactive: 18.1% |  |
| O=C(OCC(=O)c1ccc(S(=O)(=O)N2CCCC2)cc1)C1=COCCO1 |  | inconclusive [rising, single point] |
| CCCc1nc2ccccc2c(=O)n1NC(=O)c1c(O)c2ccccc2n(C)c1=O | inactive: 0% |  |
| CCOc1ccc(S(=O)(=O)N2CN(c3cccc(C(C)=O)c3)c3nc4ccccc4nc32)cc1 | inactive: 0.361% |  |

| SMILES | activity, negative = less viability | Potency |
| --- | --- | --- |
| CN(C)/C=C/C(=O)/C=C/c1ccc(Cl)cc1Cl |  | inconclusive [cytotoxic, single point] |
| Cc1ccc2ncnc(Nc3ccc(C)c(C)c3)c2c1 |  | inconclusive [cytotoxic, single point] |
| CC(C)[C@H](N)C(=O)N[C@H]1CCC2C3CC=C4C[C@@H](O)CC[C@]4(C)C3CC[C@@]21C (stereo partly drawn) |  | active: 18.4 µM |
| CCOC(=O)Nc1ccc(NCc2ccc(F)cc2)nc1N |  | inconclusive [cytotoxic, partial curve] |
| NS(=O)(=O)c1ccc(F)c(C(=O)O)c1 | inactive: 18.2% |  |
| Cc1cc(C)n2nc(SCC(=O)NC(=O)c3ccccc3Cl)nc2n1 | inactive: 0% |  |
| CC1(C)Cc2c(cnn2-c2ccccc2)C(=O)/C1=N\NC(=O)c1ccccc1N |  | inconclusive [cytotoxic, single point] |
| COC(=O)[C@@]1(Cc2ccc(F)cc2)[C@H]2c3cc(C(=O)N4CCCC4)n(Cc4ccccc4)c3C[C@H]2CN1C(=O)c1ccccc1 |  | inconclusive [cytotoxic, single point] |
| Cc1cccc(S(=O)(=O)NC(=O)C2(C)CCN2C(=O)c2cccc(F)c2)c1 (stereo not drawn) | inconclusive: 3.35% |  |
| COCc1cccc(-c2csc(C(C)(O)c3cccc(OC)c3)n2)c1 (stereo not drawn) |  | inconclusive [cytotoxic, partial curve] |
| CCN1C(=O)C(CC(=O)Nc2ccc(Br)cc2)N(CCCc2ccccc2)C1=S (stereo not drawn) |  | inconclusive [cytotoxic, single point] |
| c1ccc2c(c1)OCCOCCOCCOCCOCCOc1ccccc1OCCOCCOCCO2 |  | inconclusive [cytotoxic, single point] |
| Cc1cccc(-c2ccc(NC(=O)C3CCN(CC4CC4)CC3)cc2)c1 |  | active: 20.6 µM |
| Cc1ccc2c(c1)/C(=C/c1ccccc1C)C(=O)N2 |  | inconclusive [cytotoxic, full curve] |
| Cc1cc(C2=NNC(=NC3CCCCC3)SC2)c(C)n1-c1c(C)n(C)n(-c2ccccc2)c1=O | inactive: -16.1% |  |
| Cc1c(CC(=O)NCCC(=O)O)c(=O)oc2cc3occ(-c4ccccc4)c3cc12 |  | inconclusive [cytotoxic, partial curve] |
| C=CCOc1ccc(/C=N/N2C(=O)C(CC(=O)Nc3ccc(F)cc3F)SC2=NC)cc1 (stereo not drawn) |  | active: 14.6 µM |
| CC(=O)OC1CCC2(C)C(CCC3C4CC=C(C(C)=O)C4(C)OC(=O)CC32)C1 (stereo not drawn) |  | inconclusive [cytotoxic, partial curve] |
| CN1CCN(c2nc(-c3ccc(Cl)cc3Cl)nc3ccccc23)CC1 |  | inconclusive [cytotoxic, single point] |
| COc1ccc(C2COc3cc(O)ccc3C2)c(OC)c1O (stereo not drawn) |  | inconclusive [cytotoxic, single point] |
| CC[n+]1c(/C=C/c2ccc(N(C)C)cc2)ccc2ccccc21 |  | active: 10.3 µM |
| O=C(Nc1cccc(Cl)c1)c1csc(-c2ccccc2)n1 | inconclusive: 37.5% |  |
| COc1ccc(C)c2sc(N(CCN(C)C)C(=O)c3ccc4ccccc4c3)nc12 |  | inconclusive [cytotoxic, single point] |
| Cc1ccc2nc(N3C(=O)C(O)=C(C(=O)c4ccco4)C3c3cccs3)sc2c1 (stereo not drawn) |  | inconclusive [cytotoxic, single point] |
| CCN1CCCC1CNCc1ccccc1OCc1ccc(F)cc1 (stereo not drawn) |  | inconclusive [cytotoxic, single point] |

| SMILES | activity, negative = less viability | Potency |
| --- | --- | --- |
| S=C1NC(c2ccccc2)=CC(c2ccccc2)N1 (stereo not drawn) | inactive: 2.91% |  |
| Cc1ccc(C)c(-n2c(Cc3cccs3)n[nH]c2=S)c1 |  | inconclusive [rising, single point] |
| O=C(Nc1ccc([N+](=O)[O-])cc1)c1ccc(Cn2cc([N+](=O)[O-])cn2)cc1 |  | inconclusive [cytotoxic, full curve, poor fit] |
| Cc1cccnc1NCc1ccc(O)c2ncccc12 |  | inconclusive [cytotoxic, single point] |
| CCCNC(=O)N1CCC(C(=O)c2cccc(F)c2)CC1 | inactive: 18.4% |  |
| CCOC(=O)[C@H]1[C@H]2COc3ccc(OC)cc3[C@@H]2N2C(=O)CN(Cc3ccc(F)cc3)C(=O)[C@@]12C | inactive: -1.11% |  |
| Cc1cnc(NC(=O)CSc2nnc(Cc3ccccc3)o2)s1 |  | active: 4.47 µM |
| CCCCc1c(-c2ccccc2OC)ncn1CCc1cccc(OC)c1 |  | active: 18.4 µM |
| CCOC(=O)C1Oc2ccccc2C(c2ccc(F)cc2)=C1C(=O)OC (stereo not drawn) | inactive: 7.77% |  |
| CCC1CCCCN1C(=O)CSC1=NN2CCCC(=O)N=C2S1 (stereo not drawn) |  | inconclusive [rising, single point] |
| COc1cc(OC)c(OC)cc1CN1CCN(Cc2cccn2C)CC1 | inactive: 19.2% |  |
| CC1CC/C(=C\c2ccc3c(c2)OCO3)C(=O)/C1=C/c1ccc2c(c1)OCO2 (stereo not drawn) |  | inconclusive [cytotoxic, single point] |
| CCC[C@@H](CNC)NC[C@H](Cc1ccccc1)NCCCCc1ccccc1 |  | inconclusive [cytotoxic, single point] |
| CCN1C(=O)C2C(C1=O)N1C(c3cccs3)C3C(=O)N(CC)C(=O)C3N1C2c1cccs1 (stereo not drawn) | inactive: 11.8% |  |
| O=C(N/N=C/c1cccc([N+](=O)[O-])c1O)c1cccs1 | inconclusive: -30.3% [cytotoxic] |  |
| COC(=O)[C@@H]1CCCN1C(=O)[C@@H](NC(=O)OC(C)(C)C)C(C)C | inactive: 2.33% |  |
| Oc1ccc2c(c1)oc1cc(O)ccc12 |  | inconclusive [cytotoxic, single point] |
| CCN1CCN(c2cc(C)c3cc(NC(=S)N4CCCCC4)ccc3n2)CC1 |  | inconclusive [cytotoxic, single point] |
| Cc1ccc(-n2ncc3c(N4CCCC(C)C4)ncnc32)c(C)c1 (stereo not drawn) | inactive: 15.6% |  |
| COc1ccc(NC(=O)CN(C)C(=O)c2cc3c(cc2Cl)N2CCCCCC2=NS3(=O)=O)cc1 | inactive: -2.89% |  |
| Cc1ccc(S(=O)(=O)Nc2ccc(Cl)cc2C(=O)c2ccc(F)cc2)cc1 | inactive: 9.3% |  |
| O=C1Nc2ccccc2N=C(c2ccccc2)C1N(C(=O)c1ccnc2ccccc12)c1ccccc1 (stereo not drawn) |  | inconclusive [cytotoxic, single point] |
| Cc1cccc(C(=O)Nc2nc(C)c(C(=O)Nc3ccc4c(c3)CCC4)s2)c1 |  | active: 11.2 µM |
